Screen size: about 370,000 compounds; about 150 (0.041%) were called active. This list was built around the results that the source calls inconclusive (neither active nor inactive); the mix of calls is not that of the screen. Calls follow the shape of the dose curve; as a rule, active = well fitted inhibition curve with a large enough effect; inconclusive = small, poorly fitted or top-dose-only effect; inactive = flat fitted curve, though single readings scatter. No potency is given beside an inconclusive call; the fits are too rough. Peptide text beside a SMILES is read from it. * marks the point of attachment. OBn = c1ccc(CO*)cc1
The compounds below were run against Beta-lactamase (Escherichia coli (strain K12)) (UniProt P00811) (assay: qHTS Inhibitors of AmpC Beta-Lactamase (assay with detergent)). Details: AmpC hydrolysis of nitrocefin, absorbance 480 nm, 0.01% Triton; activity change, negative = inhibition: at 114 µM (top of the series).
Chain of UniProt P00811 (P00811 whole entry, looked up): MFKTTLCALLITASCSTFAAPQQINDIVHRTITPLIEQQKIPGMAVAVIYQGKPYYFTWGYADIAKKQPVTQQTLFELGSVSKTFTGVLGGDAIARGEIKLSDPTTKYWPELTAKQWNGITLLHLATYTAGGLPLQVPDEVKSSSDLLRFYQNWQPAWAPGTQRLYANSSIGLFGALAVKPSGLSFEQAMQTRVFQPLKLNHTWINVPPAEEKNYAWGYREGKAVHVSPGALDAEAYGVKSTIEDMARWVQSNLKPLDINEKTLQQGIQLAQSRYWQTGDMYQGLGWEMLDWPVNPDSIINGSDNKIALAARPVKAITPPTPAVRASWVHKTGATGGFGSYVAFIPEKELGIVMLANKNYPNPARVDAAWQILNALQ
Method in brief: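 20 mM phosphate pH 7.0 + 0.01% (detergent screen) or 0.0001% Triton X-100; 5.3 nM AmpC reagent; cpd preinc 15 min RT; nitrocefin (800 uM stock) to start; A480 q20 s × 4 min; Activity was normalised to no-enzyme and no-compound control wells.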
Also: nearly all actives have a fitted effect of over 25% in size.
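For activity change, negative = inhibition in this document: 0% = no-compound wells and -100% = no-enzyme wells.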
Potency is read from the fitted curve at half-maximal effect; tags tell the direction and shape of the fitted curve.

Row | Structure (SMILES) | Potency | activity change, negative = inhibition
1 | Cc1ccc(OCC(=O)Nc2ccc(C)c(F)c2)c([N+](=O)[O-])n1 | inconclusive [inhibitor, full curve] | –
2 | O=C(CSc1nnc(C2CC2)n1CC1CCCO1)Nc1cccc(Cl)c1 (stereo not drawn) | inconclusive [inhibitor, partial curve] | –
3 | NNC(=O)c1ccc(Cn2cc(Cl)cn2)o1 | – | inactive: -1.36%
4 | CC(C)N=C(NC#N)SCc1ccc(Br)cc1 | inconclusive [inhibitor, full curve] | –
5 | CCOC(=O)c1[nH]c2c(c1-c1ccccc1)C(=O)CC(c1ccc(OCC)cc1)C2 (stereo not drawn) | – | inactive: -12%
6 | O=C1CN(C(=O)c2ccc(Cl)c([N+](=O)[O-])c2)c2ccccc2N1 | inconclusive [inhibitor, partial curve, poor fit] | –
7 | COC(=O)c1cc(OC)c(OC)c(OC)c1NC(=O)c1ccc(S(=O)(=O)N(C)C)cc1 | inconclusive [inhibitor, full curve, poor fit] | –
8 | Cc1ccc(C)c(NC(=O)C(c2ccccc2)N2CCN(CC(=O)NC3CC3)CC2)c1 (stereo not drawn) | inconclusive [inhibitor, full curve, poor fit] | –
9 | O=[N+]([O-])c1ccc2nc(-c3ccc(Cl)cc3)[nH]c2c1 | inconclusive [inhibitor, partial curve, poor fit] | –
10 | COC(=O)C1=NN[C@H](C(=O)OC)[C@H]1c1ccccc1 | inconclusive [inhibitor, partial curve] | –
11 | C/C=C/c1ccc(OCC(=O)Nc2cc(OC)c(OC)c(OC)c2)c(OC)c1 | – | inactive: -5.27%
12 | O=C(/C=C/c1ccc(Cl)cc1Cl)c1nc2ccccc2[nH]1 | – | inactive: 1.6%
13 | Cc1ccc(C)c(NS(=O)(=O)c2cc(Br)cnc2N)c1 | inconclusive [inhibitor, single point] | –
14 | CN1C(=O)/C(=N\OC(=O)c2ccccc2Cl)c2ccccc21 | inconclusive [inhibitor, full curve] | –
15 | Cc1ccccc1CNC(=O)C(C)n1nc(C)n2c(cc3occc32)c1=O (stereo not drawn) | – | inactive: -3.36%
16 | Nc1nnc(SCc2ccc([N+](=O)[O-])cc2)s1 | inconclusive [inhibitor, full curve, poor fit] | –
17 | COc1ccc2cc(CN(CCO)C(=O)c3ccccc3F)c(=O)[nH]c2c1 | inconclusive [inhibitor, full curve] | –
18 | CN(C(=O)/C=C/c1ccco1)c1ccccc1C(=O)O | – | inactive: 0.909%
19 | Cc1cccc(C(=O)N2CCN=C2SCc2ccc([N+](=O)[O-])cc2)c1 | inconclusive [inhibitor, single point] | –
20 | CC(c1ccco1)N(C(=O)c1cc(Cl)cc(Cl)c1)c1ccccn1 (stereo not drawn) | inconclusive [inhibitor, full curve] | –
21 | CCC(C)C(NC(=O)C(N)CC(C)C)C(=O)NC(CCC(=O)OCc1ccccc1)C(N)=O (stereo not drawn) (H-Leu-Ile-Glu(OBn)-NH2; configuration not given here) | inconclusive [inhibitor, partial curve, poor fit] | –
22 | COc1cc(Br)c(CNc2cc(C)ccc2C)cc1OC | – | inactive: -19.3%
23 | CCc1nnc2n1N=C(c1ccc(-c3cc(Cl)ccc3Cl)o1)CS2 | inconclusive [inhibitor, full curve, poor fit] | –

Row | Structure (SMILES) | Potency | activity change, negative = inhibition
24 | Cc1ccc(NC(=O)/C=C/c2ccc([N+](=O)[O-])s2)cc1 | inconclusive [inhibitor, full curve, poor fit] | –
25 | COc1ccc(-n2c(SCC3CNC(=O)O3)nnc2-c2ccc(Cl)cc2)cc1 (stereo not drawn) | inconclusive [inhibitor, full curve, poor fit] | –
26 | CC(C(=O)c1ccc(Br)cc1)[n+]1cccc2ccccc21 (stereo not drawn) | inconclusive [inhibitor, full curve] | –
27 | CN(CC(=O)O/N=C(\N)c1ccc([N+](=O)[O-])cc1)S(=O)(=O)c1ccc2ccccc2c1 | – | inactive: 0.359%
28 | C=CCn1c(=NC(=O)C2CCCCC2)sc2cc(NC(C)=O)ccc21 | inconclusive [inhibitor, full curve, poor fit] | –
29 | COc1cccc(NC(=S)N(CCCN2CCC(C)CC2)Cc2cccs2)c1 | – | inactive: -0.0793%
30 | C/C(=N\Nc1nccnc1Cl)c1ccc(O)cc1 | inconclusive [inhibitor, full curve] | –
31 | CSCCC(NC(=O)c1cc(C(C)(C)C)oc1C)C(=O)O (stereo not drawn) | inconclusive [inhibitor, partial curve, poor fit] | –
32 | CC(C)CNC(=S)NC1CC2CCC(C1)N2Cc1ccccc1 (stereo not drawn) | – | inactive: 8.03%
33 | COc1ccc(NC(=O)Cn2nc(C)c3ccccc3c2=O)cc1 | inconclusive [inhibitor, full curve, poor fit] | –
34 | CCOC(=O)c1ccc2nc(C(F)(F)F)[nH]c(=O)c2c1 | inconclusive [inhibitor, full curve, poor fit] | –
35 | COc1cc(/C=N/NC(=O)c2cccnc2)ccc1OS(=O)(=O)c1ccc(F)cc1 | inconclusive [inhibitor, full curve, poor fit] | –
36 | COc1c(OC(C)=O)ccc(/C=C/c2ccc3ccccc3n2)c1[N+](=O)[O-] | – | inactive: -0.34%
37 | CC(OC(=O)Cc1n[nH]c(=O)c2ccccc12)C(=O)Nc1ccc(F)cc1Cl (stereo not drawn) | inconclusive [inhibitor, full curve, poor fit] | –
38 | O=c1c2ccccc2[nH]c2ccc(O)cc12 | – | inactive: -10.2%
39 | CCc1ccc(NC(=O)Cc2cn(C)c3ccccc23)cc1 | – | inactive: 0.419%
40 | O=C(Nc1cccc(Cl)c1)N1CCOCC1 | inconclusive [inhibitor, full curve, poor fit] | –
41 | CC(=O)c1ccc(N2C(=NC(=O)C(C)C)SC3CS(=O)(=O)CC32)cc1 (stereo not drawn) | inconclusive [inhibitor, partial curve, poor fit] | –
42 | Nc1nc(SCC(=O)N2CCOCC2)n[nH]1 | – | inactive: -3.81%
43 | Cc1nn(C2CCOC(C)(C)C2)c2c1C(c1ccc3c(c1)OCO3)SCC(=O)N2 (stereo not drawn) | – | inactive: 3.02%
44 | Cc1cccc(NS(=O)(=O)c2ccc3c(c2)oc(=O)n3C)c1C | inconclusive [inhibitor, full curve] | –
45 | O=[N+]([O-])c1ccc(S(=O)(=O)NCC(c2cccnc2)N2CCc3ccccc3C2)cc1 (stereo not drawn) | – | inconclusive: -15.9% [inhibitor]
46 | COc1cccc(NC(=O)NNS(=O)(=O)c2ccc(OC)cc2OC)c1 | inconclusive [inhibitor, single point] | –

Row | Structure (SMILES) | Potency | activity change, negative = inhibition
47 | COc1ccc(NC2=CC(=O)N(C)C2=O)cc1 | – | inactive: -8.37%
48 | O=C(Nc1cc(S(=O)(=O)N2CCCCC2)ccc1O)c1ccccc1NS(=O)(=O)c1ccc(F)cc1 | – | inactive: 0.827%
49 | OCCC1CN(Cc2cccn2-c2nccs2)CCN1Cc1ccccc1 (stereo not drawn) | – | inactive: 6e-08%
50 | CCOC(=O)C1=C(CC)OC(N)=C(C#N)C1c1ccc(NC(C)=O)cc1 (stereo not drawn) | inconclusive [inhibitor, partial curve, poor fit] | –
51 | O=C(COC(=O)/C=C/c1ccccc1[N+](=O)[O-])Nc1ccc(OC(F)F)cc1 | inconclusive [inhibitor, full curve, poor fit] | –
52 | COc1ccc(CN2C(=O)C(Cc3ccccc3)Nc3ncnc(N4CCOCC4)c32)cc1 (stereo not drawn) | inconclusive [inhibitor, full curve, poor fit] | –
53 | O=C(CN1CCCCC1)Nc1c2c(nc3ccccc13)N(c1ccccc1)CC2 | inconclusive [inhibitor, partial curve] | –
54 | CC(C)NCC(O)COCCOc1ccc(Br)cc1 (stereo not drawn) | inconclusive [inhibitor, partial curve] | –
55 | CC(C(=O)Nc1ccc2c(c1)OCO2)N(c1ccc(Cl)cc1)S(C)(=O)=O (stereo not drawn) | inconclusive [inhibitor, full curve, poor fit] | –
56 | CCOc1ccccc1NC(=O)C(Cc1ccccc1)NS(=O)(=O)c1ccc2c(c1)oc(=O)n2C (stereo not drawn) | inconclusive [inhibitor, single point] | –
57 | CCOc1ccc(-c2c(C(=O)N/N=C/c3ccc(C)o3)nnn2-c2nonc2N)cc1 | – | inactive: -16%
58 | CN(CCc1ccccn1)C(=O)CCNC(=O)Cn1cnc2ccccc2c1=O | inconclusive [inhibitor, partial curve, poor fit] | –
59 | O=C(Cc1csc(-c2cccc(Cl)c2)n1)Nc1cccc(S(=O)(=O)NC2=NCCC2)c1 | inconclusive [inhibitor, full curve, poor fit] | –
60 | Cc1ccnc2nc(C(=O)OCC(=O)N(CC(C)C)C3CCS(=O)(=O)C3)nn12 (stereo not drawn) | inconclusive [inhibitor, full curve] | –
61 | Cc1cc(C)cc(Nc2cc(-c3ccccc3)nc(C)n2)c1 | – | inactive: -0.664%
62 | COc1ccc(S(=O)(=O)N2CCCCCC2)cc1N(C)S(=O)(=O)c1ccc(C)cc1 | – | inactive: 2.4%
63 | CC(C)(C)C1=Nn2c(nnc2-c2n[nH]c3c2CCC3)SC1 | inconclusive [inhibitor, partial curve] | –
64 | COc1ccc(O)c(-c2cc(C(F)(F)C(F)F)nc(-c3ccccc3)n2)c1 | – | inactive: 0.121%
65 | CCOc1ccc(NC2=NCC(=O)N2Cc2cccs2)cc1 | inconclusive [inhibitor, full curve, poor fit] | –
66 | COc1ccc2c(C(=O)CN3CCC(C)CC3)c[nH]c2c1 | inconclusive [inhibitor, full curve, poor fit] | –
67 | O=C(O)C1CCCN1S(=O)(=O)c1ccc(Br)s1 (stereo not drawn) (tested in a mixture with another compound) | – | inactive: 0.0641%
68 | CCOc1ccc(CCNC(=O)CN2C(=O)COc3ccc(S(=O)(=O)N4CCC(C)CC4)cc32)cc1 | – | inactive: -0.848%
